{"source": "paper PMC4336329", "about": "(PLoS ONE, 2015)", "note": "The campaign covered roughly 310,000 compounds. About 2,200 (0.71%) showed an effect of 50% or more. The effect is printed as a negative number. The list shows a part of the results."}
{"molecular_target": "human ether-à-go-go-related gene (hERG) potassium channel (human, UniProt Q12809)", "sequence (Q12809 whole entry, looked up)": "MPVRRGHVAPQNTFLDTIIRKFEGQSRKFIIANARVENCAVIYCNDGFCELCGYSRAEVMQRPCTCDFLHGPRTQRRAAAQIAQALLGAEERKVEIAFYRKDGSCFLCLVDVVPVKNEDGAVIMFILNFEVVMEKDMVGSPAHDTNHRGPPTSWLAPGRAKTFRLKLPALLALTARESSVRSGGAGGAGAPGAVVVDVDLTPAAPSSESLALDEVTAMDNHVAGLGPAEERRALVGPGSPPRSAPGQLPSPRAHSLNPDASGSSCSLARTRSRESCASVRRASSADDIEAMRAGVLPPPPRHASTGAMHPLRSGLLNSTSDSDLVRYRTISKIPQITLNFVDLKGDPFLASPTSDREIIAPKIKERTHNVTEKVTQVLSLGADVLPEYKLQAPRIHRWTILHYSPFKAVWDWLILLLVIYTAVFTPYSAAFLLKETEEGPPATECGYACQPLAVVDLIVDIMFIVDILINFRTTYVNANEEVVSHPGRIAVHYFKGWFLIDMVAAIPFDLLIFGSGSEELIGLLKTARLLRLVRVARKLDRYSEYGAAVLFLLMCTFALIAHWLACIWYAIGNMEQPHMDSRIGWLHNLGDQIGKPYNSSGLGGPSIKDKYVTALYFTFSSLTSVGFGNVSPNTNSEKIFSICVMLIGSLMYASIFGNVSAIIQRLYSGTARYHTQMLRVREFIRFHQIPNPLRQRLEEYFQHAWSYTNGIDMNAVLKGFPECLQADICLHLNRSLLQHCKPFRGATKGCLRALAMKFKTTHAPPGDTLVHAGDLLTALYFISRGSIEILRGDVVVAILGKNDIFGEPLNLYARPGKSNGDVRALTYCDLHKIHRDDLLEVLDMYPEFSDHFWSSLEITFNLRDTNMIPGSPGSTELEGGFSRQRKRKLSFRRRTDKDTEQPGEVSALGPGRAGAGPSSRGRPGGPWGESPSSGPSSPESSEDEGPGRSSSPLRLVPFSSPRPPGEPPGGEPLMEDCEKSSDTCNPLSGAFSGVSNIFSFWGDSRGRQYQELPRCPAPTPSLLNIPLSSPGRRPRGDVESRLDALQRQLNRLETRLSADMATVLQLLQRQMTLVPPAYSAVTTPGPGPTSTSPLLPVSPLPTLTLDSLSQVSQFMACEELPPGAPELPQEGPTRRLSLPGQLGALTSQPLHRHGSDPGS", "experiment": "primary screen, population patch clamp on CHO cells stably expressing hERG", "units": {"hERG current change (%, negative = inhibition) at 1uM": "%"}}
{"smiles": "CCC(C(=O)NCC1CCCO1)N(C(=O)CNS(=O)(=O)c1ccccc1)c1ccc(F)cc1", "note": "(centres unmarked)", "hERG current change (%, negative = inhibition) at 1uM": 9.7}
{"smiles": "CCN(CC)C(=O)c1cccc(NC(=O)c2cc(-c3ccccn3)nc3ccccc23)c1", "hERG current change (%, negative = inhibition) at 1uM": 7.39}
{"smiles": "CC(=O)c1cccc(NC(=O)COc2cc3oc(=O)c(CC(C)O)c(C)c3cc2Cl)c1", "note": "(centres unmarked)", "hERG current change (%, negative = inhibition) at 1uM": -14.4}
{"smiles": "OCCC1CN(Cc2nc(-c3ccc(F)cc3)cs2)CCN1CCc1ccccc1", "note": "(centres unmarked)", "hERG current change (%, negative = inhibition) at 1uM": -69.3}
{"smiles": "COc1cc(/C=C/C(=O)N2CCN(C)CC2)cc(S(=O)(=O)N2CCc3ccccc32)c1OC.Cl", "hERG current change (%, negative = inhibition) at 1uM": 0.264}
{"smiles": "Cc1ccc(NC(=O)C2CC(=O)n3ncnc3N2)cc1", "note": "(centres unmarked)", "hERG current change (%, negative = inhibition) at 1uM": -7.32}
{"smiles": "COc1cccc(-c2c(NC(C)=O)n(C)c3ccccc3c2=O)c1", "hERG current change (%, negative = inhibition) at 1uM": 11.4}
{"smiles": "COC(=O)C1=C(C)Nc2ncnn2C1c1ccc(C)o1", "note": "(centres unmarked)", "hERG current change (%, negative = inhibition) at 1uM": 4.93}
{"smiles": "CC(=O)c1ccc(NC(=O)CC(C)S(=O)(=O)c2ccc3c(c2)CCN3C(C)=O)cc1", "note": "(centres unmarked)", "hERG current change (%, negative = inhibition) at 1uM": 9.09}
{"smiles": "C=CCN1CCN(C(=O)CCCc2ccccc2)CC1", "hERG current change (%, negative = inhibition) at 1uM": 15.5}
{"smiles": "Cc1oc2ccc(NS(=O)(=O)c3ccc(F)cc3)cc2c1C(=O)O", "hERG current change (%, negative = inhibition) at 1uM": 13.1}
{"smiles": "Cc1ccccc1OCC(O)Cn1c(N2CCCCC2)nc2c1c(=O)[nH]c(=O)n2C", "note": "(centres unmarked)", "hERG current change (%, negative = inhibition) at 1uM": 8.88}
{"smiles": "O/N=C(\\CN1CCCCC1)c1ccccc1", "hERG current change (%, negative = inhibition) at 1uM": 10.5}
{"smiles": "CN1CCN(C(=O)/C(=C/c2cn(C)c3ccccc23)NC(=O)c2ccccc2)CC1", "hERG current change (%, negative = inhibition) at 1uM": 23.6}
{"smiles": "COc1ccc(C2CC(c3ccccc3O)=NN2C(=O)c2ccccc2)cc1OC", "note": "(centres unmarked)", "hERG current change (%, negative = inhibition) at 1uM": 10.3}
{"smiles": "O=C(CCCN1C(=O)/C(=C/c2ccccc2)SC1=S)Nc1cccc(O)c1", "hERG current change (%, negative = inhibition) at 1uM": 12.3}
{"smiles": "NC(=O)c1c(NC(=O)c2ccncc2)sc2c1CCCCCC2", "hERG current change (%, negative = inhibition) at 1uM": 10.5}
{"smiles": "CC(C)(CC(=O)O)CC(=O)Nc1cc(C(F)(F)F)cc(C(F)(F)F)c1", "hERG current change (%, negative = inhibition) at 1uM": 12.2}
{"smiles": "O=C(/C=C/c1cccs1)c1ccc(NC(=O)c2cccc(Br)c2)cc1", "hERG current change (%, negative = inhibition) at 1uM": 11.4}
{"smiles": "N#Cc1ccc(-c2csc(NC(=O)c3ccc(S(=O)(=O)N4CCc5ccccc5C4)cc3)n2)cc1", "hERG current change (%, negative = inhibition) at 1uM": -0.202}
{"smiles": "CN1CCCN(C(c2ccccc2)c2ccc(Cl)cc2)CC1.Cl", "note": "(centres unmarked)", "hERG current change (%, negative = inhibition) at 1uM": -43.3}
{"smiles": "COc1ccc(C(=O)O)cc1S(=O)(=O)NC(C)C", "hERG current change (%, negative = inhibition) at 1uM": 9.53}
{"smiles": "Cc1ccc2nc(SCc3ccccc3)c(C=O)c(=O)n2c1", "hERG current change (%, negative = inhibition) at 1uM": 9.07}
